# Test results published in PubChem BioAssay (NCATS).
# This list was built around the results that the source calls inconclusive (neither active nor inactive); the mix of calls is not that of the screen. For some assays here: No potency is given beside an inconclusive call; the fits are too rough. Active and inactive are the calls of the source. Unless noted, calls follow the shape of the dose curve; as a rule, active = well fitted curve in the direction sought with a large enough effect; inconclusive = small, poorly fitted or top-dose-only effect, or another doubt; inactive = no such curve, though single readings can be large; an effect the other way counts as inactive or inconclusive.
# Legend:
# [1] = qHTS Assay for Identification of Small Molecule Antagonists for NFkB Signaling Pathway (AID 895; active = well fitted inhibition curve with a large enough effect in the signal ratio, with a control signal flat, not every such curve was filed as active; inconclusive = small, poorly fitted or top-dose-only effect, or effect the other way, or a change in a side signal; the % refers to the signal ratio; also: % is scaled to controls: 0 for no effect and ±100 for the full control effect); settings: NFkB beta-lactamase reporter cells, FRET ratio 460/530, stimulated with 10 pM TNF alpha; activity change, negative = inhibition: at 38.3 µM (top of the series)
# Outline: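 ME-180 NFkB-bla cells (beta-lactamase under NFkB response element), plated overnight, treated with compound then 10 pM TNF alpha (about EC50) for 5 hrs at 37 C. LiveBLAzer FRET read at 460/530 nm emission, 405 nm excitation.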
# [2] = Validation screen for small molecules that induce DNA re-replication in SW480 colon adenocarcinoma cells (AID 504364); also: 0% is about no effect
# Outline: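 Hoechst-stained SW480 nuclei, imaged at 405 nm excitation after 48 hr compound exposure, were counted for elevated DNA content as the re-replication signal.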
# [3] = qHTS for Inhibitors of ATXN expression: Validation of Cytotoxic Assay (AID 588349); also: % is scaled to controls: 0 for no effect and ±100 for the full control effect
# Outline: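 Toxicity of test compounds toward HEK293 cells is scored from cellular ATP content measured by CellTiter Glo. Cells receive titrated doses and incubate 72 hr at 37 degrees C beforehand.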
# [4] = qHTS for Inhibitors of ATXN expression: Validation (AID 588378); also: % is scaled to controls: 0 for no effect and ±100 for the full control effect; nearly all actives have a fitted effect of over 75% in size
# Outline: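 Luciferase luminescence (Bright-Glo) from an ATXN2-FFLuc HEK293 line after 24 h compound exposure at 37 °C, preceded by a CellTiter-Fluor fluorescence viability read. Serial dilutions of a reference ATXN2 inhibitor and a luciferase inhibitor served as controls.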
# FAB9 = assay: qHTS profiling for inhibitors of Plasmodium falciparum proliferation (AID 504749);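 also: 0% = DMSO vehicle and full inhibition = artemisinin control; nearly all actives have a fitted effect of over 60% in size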; settings: P. falciparum in erythrocytes, SYBR Green DNA, 72 h; series mostly up to 28.7 µM
# Outline: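 SYBR Green fluorescence (ex 485 nm, em 535 nm) reports parasite DNA after 72 h compound exposure of infected red cells at 0.3% parasitemia, 2.5% hematocrit; signal normalized to 0.29 uM artemisinin and vehicle wells.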
# [5] = qHTS for differential inhibitors of proliferation of Plasmodium falciparum line 3D7 (AID 1876); also: potency is read from the fitted curve at half-maximal effect
# [6] = qHTS for differential inhibitors of proliferation of Plasmodium falciparum line W2 (AID 1883); settings: Potency: Plasmodium falciparum W2 proliferation inhibition;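 also: potency is read from the fitted curve at half-maximal effect; parasites grown with compound for 72 h before lysis and staining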
# [7] = Cytometry Cell-Based qHTS for Inhibitors of the mTORC1 Signaling Pathway in MEF cells (AID 2668);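 also: Tsc2-/- p53-/- mouse embryonic fibroblasts stably re-expressing wild-type Tsc2; percent cells positive for phospho-rpS6 Ser235/236 relative to propidium iodide stain; plate controls were DMSO wells for no effect and 7.5 nM rapamycin control wells for full effect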
# Outline: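 Phospho-rpS6 (Ser235/236) immunofluorescence over PI signal, scored as % positive cells using thresholds from 7.5 nM rapamycin and DMSO wells, after 24 h compound exposure of WT-Tsc2-rescued Tsc2-/-, p53-/- MEFs. PI cell count recorded for viability.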
# [8] = molecular target: DNA polymerase III PolC-type (Bacillus subtilis (strain 168)) (UniProt P13267); assay: qHTS Validation Assay for the Inhibitors of DNA Replication in Gram-Positive Bacteria (AID 485295); also: potency is read from the fitted curve at half-maximal effect
# Chain of UniProt P13267 (P13267 whole entry, looked up): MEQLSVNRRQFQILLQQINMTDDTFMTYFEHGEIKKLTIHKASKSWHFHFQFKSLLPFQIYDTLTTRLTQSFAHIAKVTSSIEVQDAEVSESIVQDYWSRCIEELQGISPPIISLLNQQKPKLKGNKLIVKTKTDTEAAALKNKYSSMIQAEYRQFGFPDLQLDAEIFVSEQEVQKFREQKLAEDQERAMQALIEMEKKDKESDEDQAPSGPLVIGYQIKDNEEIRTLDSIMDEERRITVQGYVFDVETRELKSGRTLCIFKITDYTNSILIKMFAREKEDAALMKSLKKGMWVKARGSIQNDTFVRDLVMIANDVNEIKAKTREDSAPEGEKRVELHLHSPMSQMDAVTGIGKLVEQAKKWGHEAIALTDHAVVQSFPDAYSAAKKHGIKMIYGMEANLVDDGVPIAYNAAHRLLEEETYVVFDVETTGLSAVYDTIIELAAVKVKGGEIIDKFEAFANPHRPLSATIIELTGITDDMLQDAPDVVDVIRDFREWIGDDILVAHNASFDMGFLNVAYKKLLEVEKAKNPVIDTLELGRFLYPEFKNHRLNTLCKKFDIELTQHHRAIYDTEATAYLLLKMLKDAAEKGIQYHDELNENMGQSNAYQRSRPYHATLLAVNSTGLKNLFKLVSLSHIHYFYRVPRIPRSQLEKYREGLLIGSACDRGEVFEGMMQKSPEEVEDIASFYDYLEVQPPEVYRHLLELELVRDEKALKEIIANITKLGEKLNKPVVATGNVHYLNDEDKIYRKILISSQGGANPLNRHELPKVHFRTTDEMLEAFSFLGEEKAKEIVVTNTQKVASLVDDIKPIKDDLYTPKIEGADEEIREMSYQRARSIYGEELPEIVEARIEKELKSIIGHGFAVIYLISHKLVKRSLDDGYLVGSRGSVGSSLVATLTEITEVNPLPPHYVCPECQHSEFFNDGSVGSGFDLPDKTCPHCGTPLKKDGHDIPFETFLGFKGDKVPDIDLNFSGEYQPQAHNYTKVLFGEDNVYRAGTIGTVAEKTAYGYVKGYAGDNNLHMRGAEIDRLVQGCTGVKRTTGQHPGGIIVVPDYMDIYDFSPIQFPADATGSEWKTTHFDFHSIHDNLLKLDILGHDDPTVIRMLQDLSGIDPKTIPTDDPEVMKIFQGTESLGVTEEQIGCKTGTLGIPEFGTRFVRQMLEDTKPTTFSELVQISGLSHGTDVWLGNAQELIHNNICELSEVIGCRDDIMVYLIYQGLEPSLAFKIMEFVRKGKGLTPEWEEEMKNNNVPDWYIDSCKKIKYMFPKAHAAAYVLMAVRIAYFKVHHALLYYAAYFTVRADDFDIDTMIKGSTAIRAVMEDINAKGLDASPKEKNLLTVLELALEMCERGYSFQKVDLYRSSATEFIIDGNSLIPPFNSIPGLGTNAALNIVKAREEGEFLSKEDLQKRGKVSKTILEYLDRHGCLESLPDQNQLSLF
# Outline: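 Double-stranded DNA product detected by PicoGreen fluorescence after EDTA quench. Compound incubated with B. subtilis holoenzyme (PolC, beta subunit, SSB, primase) before substrate addition; primed replication of M13Gori with dNTPs and NTPs at room temperature; DMSO defines 0% inhibition.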
# [9] = Quantitative high throughput screen for delayed death inhibitors of the malarial parasite plastid, 48 hour incubation (AID 488752); also: % is scaled to controls: 0 for no effect and ±100 for the full control effect; nearly all actives have a fitted effect of over 65% in size
# Outline: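 Cultures: infected erythrocytes at final 2% hematocrit and 0.1% parasitemia in Albumax-supplemented RPMI. Parasites express integrated firefly luciferase. Incubation with compound lasts 48 h before luminescent detection of remaining reporter activity.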
# [10] = molecular target: M-phase phosphoprotein 8 (Homo sapiens) (UniProt Q99549); assay: qHTS Validation Assay for Inhibitors for MPP8 Chromodomain Interactions with Methylated Histone Tails (AID 488949); settings: AlphaScreen MPP8 binding to H3K9me3 peptide; activity change, negative = inhibition: at 57.1 µM (top of the series) unless noted; also: potency is read from the fitted curve at half-maximal effect; nearly all actives have a fitted effect of over 55% in size
# Chain of UniProt Q99549 (Q99549 whole entry, looked up): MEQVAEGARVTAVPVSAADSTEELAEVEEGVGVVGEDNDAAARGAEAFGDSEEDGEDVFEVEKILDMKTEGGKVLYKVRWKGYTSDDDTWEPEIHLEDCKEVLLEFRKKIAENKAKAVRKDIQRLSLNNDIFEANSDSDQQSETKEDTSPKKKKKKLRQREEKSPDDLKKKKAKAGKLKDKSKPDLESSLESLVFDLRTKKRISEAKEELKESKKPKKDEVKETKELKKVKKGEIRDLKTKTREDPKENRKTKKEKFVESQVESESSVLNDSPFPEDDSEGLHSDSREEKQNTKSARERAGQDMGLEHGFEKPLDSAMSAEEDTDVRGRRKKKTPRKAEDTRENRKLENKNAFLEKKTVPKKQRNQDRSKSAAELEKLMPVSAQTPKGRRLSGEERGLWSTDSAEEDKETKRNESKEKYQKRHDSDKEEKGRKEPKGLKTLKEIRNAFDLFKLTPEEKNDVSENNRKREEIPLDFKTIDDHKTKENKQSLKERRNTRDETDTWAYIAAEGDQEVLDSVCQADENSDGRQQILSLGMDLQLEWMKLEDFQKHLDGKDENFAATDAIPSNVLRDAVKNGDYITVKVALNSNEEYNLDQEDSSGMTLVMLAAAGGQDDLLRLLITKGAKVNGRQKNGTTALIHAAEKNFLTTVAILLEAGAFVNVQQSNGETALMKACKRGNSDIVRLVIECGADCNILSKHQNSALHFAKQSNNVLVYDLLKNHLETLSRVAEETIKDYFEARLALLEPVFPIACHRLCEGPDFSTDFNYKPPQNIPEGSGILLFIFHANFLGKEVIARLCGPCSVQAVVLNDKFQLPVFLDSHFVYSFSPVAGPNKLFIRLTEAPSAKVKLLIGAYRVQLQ
# Outline: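 AlphaScreen proximity signal from streptavidin donor and Ni-chelate acceptor beads (10 ug/mL each) reported binding of MPP8 to trimethyl-K9 H3(1-18) peptide, both at 50 nM. The complex formed 30 min before a 30 min compound exposure at room temperature, in PBS pH 7.4.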
# [11] = molecular target: Metallo-beta-lactamase type 2 (Klebsiella pneumoniae) (UniProt C7C422); assay: qHTS to identify inhibitors of the New Delhi Metallo-beta-lactamase (NDM): assay validation screen against the NCATS LOPAC Collection (AID 1794843); also: potency is read from the fitted curve at half-maximal effect
# Chain of UniProt C7C422 (C7C422 whole entry, looked up): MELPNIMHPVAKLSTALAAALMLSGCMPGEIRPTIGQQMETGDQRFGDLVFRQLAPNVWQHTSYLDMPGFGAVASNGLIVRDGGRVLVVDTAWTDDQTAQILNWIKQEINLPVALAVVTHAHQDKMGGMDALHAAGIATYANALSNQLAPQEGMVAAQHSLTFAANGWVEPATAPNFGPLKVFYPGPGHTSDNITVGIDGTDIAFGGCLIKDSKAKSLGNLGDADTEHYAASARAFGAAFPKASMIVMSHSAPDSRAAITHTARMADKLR
# Outline: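 Enzyme 2 nM final, 50 mM HEPES pH 7.0, 1 uM ZnSO4, 0.01% Tween20; cpds in DMSO, preincub w/ enzyme; + nitrocefin (50 uM stock); A485 at plateau; no-enzyme column as blank.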
# [12] = system: Zika virus NS2B-NS3 protease (linked); assay: 384 well plate NINDS AMC confirmatory qHTS for Zika virus inhibitors (AID 1347163);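 also: linked protease at 5 30 or 60 nM final depending on run; fluorescence of AMC released from Ac-VKTGKR-AMC peptide cleaved by the protease; top concentration of the series differs between compounds; 0% = no-inhibitor control and -100% = no-enzyme control; nearly all actives have a fitted effect of over 50% in size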
# Outline: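 Enzyme (5, 30 or 60 nM final) first met test compounds for ~15 min. The AMC-tagged peptide Ac-VKTGKR-AMC followed at 30 microM. Fluorescence was then recorded at 25 min and scaled against no-enzyme and no-inhibitor wells.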
# [13] = qHTS Assay for Lipid Storage Modulators (AID 1519; calls by dose curve; also: % is scaled to controls: 0 for no effect and ±100 for the full control effect); settings: Drosophila S3 cells, BODIPY lipid droplet/cell ratio, laser cytometry, cells loaded with oleic acid; activity change, negative = inhibition: at 57.5 µM (top of the series) unless noted
# Outline: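 Cells seeded at 5,000 per well were treated with compounds over a concentration series and loaded with oleic acid (400 uM, as added). Lipid droplet fluorescence (488 nm excitation, 500-530 nm channel) was read by laser-scanning cytometry and normalized to 20 uM Triacsin C.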
# [14] = system: Nanoluciferase (engineered Oplophorus gracilirostris luciferase); assay: Primary Nanoluciferase (NLuc) qHTS assay for identification of artifact compounds. (AID 1845222);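 also: NLuc secreted into diluted conditioned medium of S16 cells; potency is read from the fitted curve at half-maximal effect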
# Outline: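 qHTS format, against NLuc in S16 cell-conditioned medium. Nano-Glo substrate 1:100 was added after 15 min at room temperature. Luminescence was taken after a further 5 min.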
# [15] = system: Zika virus NS2B-NS3 protease (linked construct); assay: Confirmatory screen NINDS AMC qHTS for Zika virus inhibitors (AID 1347152); also: potency is read from the fitted curve at half-maximal effect; nearly all actives have a fitted effect of over 70% in size
# Outline: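 IC50s from 4-parameter Hill fits of percent inhibition, based on AMC fluorescence gain (340/450 nm) over 15 min with 10 microM Bz-Nle-KRR-AMC. Enzyme: 1 nM linked NS2B-NS3 in Tris-HCl pH 8.0; 15-min compound preincubation.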
# [16] = molecular target: Cytochrome P450 3A4 (Homo sapiens) (UniProt P08684); assay: qHTS for inhibitors of CYP3A4 against the NCATS DSHEA and TCM libraries (AID 1919971); also: potency is read from the fitted curve at half-maximal effect
# Chain of UniProt P08684 (P08684 whole entry, looked up, canonical isoform): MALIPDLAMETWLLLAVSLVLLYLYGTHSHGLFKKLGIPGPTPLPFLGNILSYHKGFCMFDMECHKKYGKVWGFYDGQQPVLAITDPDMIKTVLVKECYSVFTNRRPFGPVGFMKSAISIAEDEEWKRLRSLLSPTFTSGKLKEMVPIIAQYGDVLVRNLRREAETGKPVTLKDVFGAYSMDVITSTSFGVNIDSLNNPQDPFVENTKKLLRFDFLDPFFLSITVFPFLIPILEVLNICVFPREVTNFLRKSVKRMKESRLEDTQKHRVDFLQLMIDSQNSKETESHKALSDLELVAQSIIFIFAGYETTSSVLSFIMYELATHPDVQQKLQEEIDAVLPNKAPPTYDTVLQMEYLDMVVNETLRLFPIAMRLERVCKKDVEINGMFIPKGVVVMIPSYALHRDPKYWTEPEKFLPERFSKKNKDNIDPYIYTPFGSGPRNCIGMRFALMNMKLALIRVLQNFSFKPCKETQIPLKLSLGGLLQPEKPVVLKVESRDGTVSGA
# Outline: (§1)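 Isoform-specific enzyme and substrate levels; enzyme-free wells as background. Reaction: 1x NADPH regenerating system, 30-45 min, room temperature, shielded from light; luminescent detection reagent added, 30 min.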
# [17] = molecular target: Cytochrome P450 2C9 (Homo sapiens) (UniProt P11712); assay: qHTS for inhibitors of CYP2C9 against the NCATS DSHEA and TCM libraries (AID 1919973); also: potency is read from the fitted curve at half-maximal effect
# Chain of UniProt P11712 (P11712 whole entry, looked up): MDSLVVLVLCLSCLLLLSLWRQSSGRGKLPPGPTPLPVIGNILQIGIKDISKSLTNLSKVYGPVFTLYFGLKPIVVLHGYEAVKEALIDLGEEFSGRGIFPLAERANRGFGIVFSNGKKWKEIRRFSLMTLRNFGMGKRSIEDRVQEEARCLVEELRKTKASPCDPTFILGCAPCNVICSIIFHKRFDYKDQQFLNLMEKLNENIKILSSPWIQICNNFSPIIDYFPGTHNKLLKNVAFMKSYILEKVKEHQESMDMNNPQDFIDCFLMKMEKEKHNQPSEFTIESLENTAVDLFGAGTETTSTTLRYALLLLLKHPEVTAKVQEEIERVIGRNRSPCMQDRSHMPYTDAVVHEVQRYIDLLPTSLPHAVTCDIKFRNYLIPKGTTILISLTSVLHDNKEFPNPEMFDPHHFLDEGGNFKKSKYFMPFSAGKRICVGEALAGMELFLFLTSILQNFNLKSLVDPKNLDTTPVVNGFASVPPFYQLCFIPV
# Outline: as §1
# [18] = molecular target: Cytochrome P450 2C19 (Homo sapiens) (UniProt P33261); assay: qHTS for inhibitors of CYP2C19 against the NCATS DSHEA and TCM libraries (AID 1919974)
# Chain of UniProt P33261 (P33261 whole entry, looked up): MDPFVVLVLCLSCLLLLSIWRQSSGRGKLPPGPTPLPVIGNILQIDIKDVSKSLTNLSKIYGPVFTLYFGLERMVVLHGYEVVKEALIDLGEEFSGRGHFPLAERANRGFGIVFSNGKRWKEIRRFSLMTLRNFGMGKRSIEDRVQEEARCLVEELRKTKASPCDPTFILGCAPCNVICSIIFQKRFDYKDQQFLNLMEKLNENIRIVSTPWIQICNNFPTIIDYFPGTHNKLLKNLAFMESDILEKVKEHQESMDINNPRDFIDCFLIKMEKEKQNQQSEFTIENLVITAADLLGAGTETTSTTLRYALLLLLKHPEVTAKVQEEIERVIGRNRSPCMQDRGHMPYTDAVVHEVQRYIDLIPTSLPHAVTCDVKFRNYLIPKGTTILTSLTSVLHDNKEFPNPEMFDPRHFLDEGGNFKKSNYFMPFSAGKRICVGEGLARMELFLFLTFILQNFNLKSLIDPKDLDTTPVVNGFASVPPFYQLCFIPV
# Outline: as §1
# [19] = molecular target: Nuclear receptor subfamily 1 group I member 2 (Homo sapiens) (UniProt O75469); assay: Dual reporter qHTS for agonist of Pregnane X Receptor (hPXR) against the NCATS DSHEA and TCM libraries: Luminescence readout (AID 1920059); also: potency is read from the fitted curve at half-maximal effect
# Chain of UniProt O75469 (O75469 whole entry, looked up): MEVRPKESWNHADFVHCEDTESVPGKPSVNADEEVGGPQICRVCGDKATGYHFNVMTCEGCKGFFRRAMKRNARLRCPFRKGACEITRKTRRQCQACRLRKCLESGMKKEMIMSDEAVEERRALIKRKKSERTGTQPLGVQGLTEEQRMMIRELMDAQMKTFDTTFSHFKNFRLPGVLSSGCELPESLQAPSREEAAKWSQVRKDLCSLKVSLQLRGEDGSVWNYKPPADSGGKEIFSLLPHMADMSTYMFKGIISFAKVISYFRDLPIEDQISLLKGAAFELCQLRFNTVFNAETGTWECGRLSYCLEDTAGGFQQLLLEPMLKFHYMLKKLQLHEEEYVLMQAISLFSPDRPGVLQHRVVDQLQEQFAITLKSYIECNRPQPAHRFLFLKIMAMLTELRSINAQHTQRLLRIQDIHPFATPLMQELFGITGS
# Outline: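 hPXR-Luc HepG2 cells, 2000/well in 5% charcoal-stripped FBS medium, attached 5 h, then exposed 24 h at 37C to compounds. Viability by CellTiter-Fluor, then luciferase luminescence with ONE-Glo.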
# Tags tell the direction and shape of the fitted curve.
structure (smiles),measurement,setting,value
CCO/C([O-])=N/c1c[n+](N2CCOCC2)no1,"activity change, negative = inhibition",[1],inconclusive: 12.4%
same,Potency,[2],inactive
same,Potency,[3],inactive
same,Potency,[4],inactive
same,Potency,FAB9,inactive
O=C(O)CP(=O)(O)O,Potency,[5],"inconclusive [inhibitor, single point]"
same,Potency,[6],"inconclusive [inhibitor, partial curve]"
same,Potency,[7],inactive
same,Potency,[8],"inconclusive [inhibitor, single point]"
same,Potency,[9],inactive
same,Potency,[10],"inconclusive [inhibitor, single point]"
same,Potency,[11],"inconclusive [inhibitor, partial curve]"
O=C(O)Cc1ccc2oc(-c3ccc(NC(=O)/C=C/c4ccc(Br)cc4)c(F)c3)nc2c1,"activity change, negative = inhibition",[12],inactive: 1240% [at 100 µM]
O=C(O)c1ccccc1OP(=O)(O)O,"activity change, negative = inhibition",[13],inconclusive: 9.74%
COc1ccccc1Oc1c(NS(=O)(=O)c2ccc(C)cn2)nc(-c2ccncc2)nc1OC,Potency,[14],"inconclusive [inhibitor, partial curve]"
COc1ccc(Cl)c(Nc2nc3ccccc3nc2NS(=O)(=O)c2cccc(NC(=O)C(C)(C)N)c2)c1,Potency,[15],"inconclusive [inhibitor, full curve]"
CC(=O)O[C@@H]1C[C@@H](C)[C@](O)(CCC2=CC(=O)OC2)[C@@]2(C)CCCC(C)(C)C12 (stereo not given in full),Potency,[16],active: 4.47 µM
same,Potency,[17],active: 8.91 µM
same,Potency,[18],active: 2.82 µM
same,Potency,[19],active: 12.6 µM
